The list shows a part of the results. For part of these data: At the low end of the ranking the order means little. For part of these data: The protein was read in a cell extract, so binding may be indirect.
Tests used:
Settings in all cases: 20 mM HEPES pH 7.9, 100 mM NaCl, 1 mM DTT, 0.2 mg/mL BSA, 0.02% Triton X-100, 2% milk, 0.4 mg/mL salmon testes DNA; 1 h; temperature not stated; high values mean tight binding; double strand, one strand shown; sequences stand for … in GCCTAGCAC…GTGCTAGGTCTTGATTCGCTTGACGCTGCTG
[1] = molecular target: PU.1 (IVT) (UniProt P17947); test: protein-binding microarray (PBM)
[2] = molecular target: T1, FLI1 (endogenous, THP-1 nuclear extract) (UniProt Q01543); test: nuclear extract protein-binding microarray (nextPBM)
T1 sequence: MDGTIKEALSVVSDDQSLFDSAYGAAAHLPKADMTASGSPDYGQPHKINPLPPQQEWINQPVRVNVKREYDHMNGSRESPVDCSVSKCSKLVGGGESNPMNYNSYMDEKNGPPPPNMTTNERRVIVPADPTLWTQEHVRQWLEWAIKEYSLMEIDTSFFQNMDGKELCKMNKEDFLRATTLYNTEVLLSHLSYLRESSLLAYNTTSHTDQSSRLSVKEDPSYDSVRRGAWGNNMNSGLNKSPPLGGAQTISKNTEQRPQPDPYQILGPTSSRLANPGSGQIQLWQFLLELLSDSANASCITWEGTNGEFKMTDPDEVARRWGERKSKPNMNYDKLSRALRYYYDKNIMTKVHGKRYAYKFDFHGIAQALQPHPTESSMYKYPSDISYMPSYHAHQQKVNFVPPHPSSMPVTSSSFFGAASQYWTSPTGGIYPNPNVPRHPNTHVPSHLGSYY

[3] = system: PU.1 (endogenous, THP-1 nuclear extract) + IRF8 (endogenous, THP-1 nuclear extract); test: as above

Sequence	binding signal [1] [z-score]	binding signal [2] [z-score]	binding signal [3] [z-score]
TGGCAGAGGAAGTGAATCTA	3.42	2.7	1.4
AAAAAAAGGAAATTAAAGTA	3.65	2.1	-0.154
AAAAAAAGGAACTGAAAGTA	4.57	2.32	22.6
TGCAGGTGGAAGTGAAACTG	1.39	1.7	40.8
GGTGTGGGGAAGTGAAACCT	3.54	2.17	36.8
CTGCCAGGGAAGTGATAGCA	1.15	0.603	-0.272
